# Test results taken from PubChem BioAssay AID485294 (National Center for Advancing Translational Sciences (NCATS), 2010).
# Out of some 370,000 compounds screened, about 150 (0.041%) were called active. This list was built around the results that the source calls inconclusive (neither active nor inactive); the mix of calls is not that of the screen. Calls come from the whole dose curve; as a rule, active = well fitted inhibition curve with a large enough effect; inconclusive = small, poorly fitted or top-dose-only effect; inactive = flat fitted curve, though single readings scatter. Potencies of inconclusive entries are left out as doubtful fits.
# Biological target: Beta-lactamase (Escherichia coli (strain K12)) (UniProt P00811)
# Sequence of UniProt P00811 (P00811 whole entry, looked up): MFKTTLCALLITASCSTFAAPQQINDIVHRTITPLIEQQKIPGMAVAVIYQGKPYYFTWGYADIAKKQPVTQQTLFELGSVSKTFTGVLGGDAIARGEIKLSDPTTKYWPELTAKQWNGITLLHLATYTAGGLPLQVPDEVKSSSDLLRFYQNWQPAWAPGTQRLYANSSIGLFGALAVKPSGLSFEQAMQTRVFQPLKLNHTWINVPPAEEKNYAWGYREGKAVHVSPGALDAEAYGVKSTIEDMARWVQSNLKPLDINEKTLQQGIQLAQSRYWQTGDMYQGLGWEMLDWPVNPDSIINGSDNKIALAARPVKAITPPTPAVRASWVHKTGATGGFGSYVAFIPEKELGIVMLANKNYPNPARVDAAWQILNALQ
# Assay: qHTS Inhibitors of AmpC Beta-Lactamase (assay with detergent); note: nearly all actives have a fitted effect of over 25% in size
# Conditions: AmpC hydrolysis of nitrocefin, absorbance 480 nm, 0.01% Triton; series mostly up to 114 µM
# Summary of the method: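 20 mM phosphate pH 7.0 + 0.01% (detergent screen) or 0.0001% Triton X-100; 5.3 nM AmpC reagent; cpd preinc 15 min RT; nitrocefin (800 uM stock) to start; A480 q20 s × 4 min; Activity was normalised to no-enzyme and no-compound control wells.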
# Potency is the fitted concentration of half-maximal effect; tags give direction and shape of the fitted curve.
row,Compound,Potency
1,CCOC(=O)CN1CC23C=CC(O2)C(C(=O)Nc2ccc4c(c2)OCO4)C3C1=O (stereo not given),"inconclusive [inhibitor, full curve, poor fit]"
2,COc1ccc(N2CC(NS(=O)(=O)c3ccc(F)cc3)CC2=O)cc1 (stereo not given),"inconclusive [inhibitor, partial curve, poor fit]"
3,CC(=O)Nc1ccc(S(=O)(=O)N2CCN(CCCOc3cc(C)ccc3C)CC2)cc1,"inconclusive [inhibitor, full curve, poor fit]"
4,O=C(NCc1ccc2c(c1)OCO2)C1(S(=O)(=O)c2ccccc2)CC1,"inconclusive [inhibitor, full curve, poor fit]"
5,N/C(=N\OC(=O)c1ccc(Cl)c([N+](=O)[O-])c1)c1ccccc1,"inconclusive [inhibitor, full curve, poor fit]"
6,COc1ccccc1N1CCN(C(=O)CSc2nc3ccccc3o2)CC1,"inconclusive [inhibitor, full curve, poor fit]"
7,C/C(=N\NC(N)=O)c1c(F)cccc1F,"inconclusive [inhibitor, single point]"
8,CN(C(=S)Nc1ccccc1)c1ccccc1,"inconclusive [inhibitor, partial curve, poor fit]"
9,COc1cccc(C(=O)/C=C/Nc2ccc(S(=O)(=O)Nc3onc(C)c3C)cc2)c1,inactive
10,Cc1cc[n+](CC(=O)Nc2ccccc2)cc1,inactive
11,O=C(Nc1ccc2c(c1)N(C1CCCC1)C(=O)c1ccccc1S2)c1ccccc1,inactive
12,CCCC(=O)NC(c1ccc(N(C)C)cc1)c1ccc2cccnc2c1O (stereo not given),"inconclusive [inhibitor, partial curve, poor fit]"
13,CCCCCCc1ccc(OCC(=O)OC)cc1OCC(=O)OC,"inconclusive [inhibitor, full curve, poor fit]"
14,O=C(OC(C(=O)Nc1ccc([N+](=O)[O-])cc1Br)c1ccccc1)c1ccccc1 (stereo not given),"inconclusive [inhibitor, full curve, poor fit]"
15,O=C(c1cc2ccccc2oc1=O)N1CCN(CCc2ccccc2)CC1,"inconclusive [inhibitor, full curve]"
16,COc1ccc(NC(=O)CCCS(=O)(=O)c2nc(-c3ccc(OC)c(OC)c3)cc(C(F)(F)F)n2)cc1OC,"inconclusive [inhibitor, partial curve, poor fit]"
17,N/C(=N\OCc1ccccc1)c1nonc1N,inactive
18,CC(C)n1nccc1NS(=O)(=O)c1ccccc1,"inconclusive [inhibitor, full curve, poor fit]"
19,Cc1ccc(-n2c(C)c(C)c3c(N)ncnc32)cc1,inactive
20,CC(=O)OCC(=O)c1ccc2ccn(C(C)=O)c2c1,"inconclusive [inhibitor, single point]"
21,Cc1ccc(Cn2c(=O)c3ccccc3n3c(-c4ccccc4)nnc23)cc1,inactive
22,Cc1oc(-c2ccc3ccccc3c2)nc1CN(C)C(C)c1ccncn1 (stereo not given),inactive
23,CC(C)n1nc(C(=O)NNC(=O)c2ccncc2)c2ccccc2c1=O,"inconclusive [inhibitor, single point]"

row,Compound,Potency
1,COc1ccc(CCNc2ccc(S(N)(=O)=O)cn2)cc1,"inconclusive [inhibitor, full curve, poor fit]"
2,COc1ccc(/C=C/C2=NN(Cc3ccccc3)C(=O)CC2)cc1,inactive
3,Cn1c(=O)c(/C=C/c2ccccc2)nc2ccccc21,inactive
4,O=C1Nc2ccccc2C1=Nc1cccc(Cl)c1,"inconclusive [inhibitor, full curve]"
5,Cc1ccc(NC(=O)c2ccco2)c(OCc2cc(=O)n3cc(C)sc3n2)c1,inactive
6,O=C1[C@H]2CC3CCC2(O3)[C@@H]2OCCCN12 (stereo not given in full),"inconclusive [inhibitor, single point]"
7,CCCOC(=O)C1C2C=CC3(CN(c4cccc(Cl)c4)C(=O)C13)O2 (stereo not given),"inconclusive [inhibitor, full curve, poor fit]"
8,O=C1Cn2c(nc3ccccc32)N1c1ccccc1F,"inconclusive [inhibitor, full curve, poor fit]"
9,Cc1cc(O)c(C(c2cccc(Cl)c2)N2CCN(c3ccccc3)CC2)c(=O)n1Cc1ccco1 (stereo not given),inactive
10,Cc1sc2ncn(CC(=O)NCCCC(=O)N3CCN(c4ccccc4F)CC3)c(=O)c2c1C,"inconclusive [inhibitor, single point]"
11,CCN1/C(=C/c2ccc3ccc(C)cc3[n+]2CC)Sc2ccccc21,"inconclusive [inhibitor, full curve]"
12,Cc1cc(C)n(CCn2nc(C)cc2C)n1,"inconclusive [inhibitor, partial curve, poor fit]"
13,CCc1c(O)nc(SCC(=O)Nc2ccccc2)n(-c2ccccc2)c1=O,"inconclusive [inhibitor, full curve, poor fit]"
14,Cc1ccc(CN2CC34C=CC(O3)C(C(=O)NCc3ccco3)C4C2=O)cc1 (stereo not given),inactive
15,CCC(C(=O)NC(C)CCc1ccco1)n1nc(C)n2c(cc3occc32)c1=O (stereo not given),"inconclusive [inhibitor, partial curve, poor fit]"
16,C=CCn1c(SCc2ccc(F)cc2)nnc1-c1sc2nc(C)cc(C)c2c1N,"inconclusive [inhibitor, partial curve, poor fit]"
17,COc1ccccc1NS(=O)(=O)c1cccc(NC(=O)c2ccc3ccccc3n2)c1,inactive
18,O=C(c1ccncc1)N1N=C(c2ccc(Cl)cc2)CC1c1ccccc1O (stereo not given),inactive
19,O=S(=O)(c1ccccc1F)N1CCN(C(=S)NCc2ccccc2)CC1,inactive
20,CCOC(=O)N1CCN(c2nnc(-c3ccccc3)c3ccccc23)CC1,"inconclusive [inhibitor, partial curve, poor fit]"
21,COc1ccc(C(=O)COC(=O)/C=C/c2ccccc2)c(OC)c1,inactive
22,CSc1nnc(-c2cccs2)n1-c1ccccc1,inactive
